Here are results for 83 compounds from ChEMBL document CHEMBL4888484, “Replenishing the malaria drug discovery pipeline: Screening and hit evaluation of the MMV Hit Generation Library 1 (HGL1) against asexual blood stage Plasmodium falciparum ,using a nano luciferase reporter read-out” (2022).

Screen size: about 150,000 compounds; about 540 (0.36%) showed an effect of 50% or more. Some of the results follow.

The assay concerns Plasmodium falciparum. As to the kind of experiment: Primary screen in NF54 nanoGlo assay, in single point, at 2uM, 72h; a lower Z score goes with more inhibition. The format is functional, Erythrocyte. To be noted: timepoint 72 hour.
One may read the % Inhibition as the drop in the measured response relative to a control, in per cent. With `CC(=O)N1CCc2cc(N3C[C@@H](C(=O)Nc4ccc(F)c(C)c4)CC3=O)ccc21`, the “% Inhibition” value is given as -7% and the Z score is recorded as 1.33.
The matching figures for `Cc1ccc(-c2cc(C#N)c(NC(=O)c3ccc(Cl)cc3Cl)o2)cc1`: -8% and 1.09.
The matching figures for `COc1cccc(Cn2cnc3c4ccccc4n(Cc4ccccc4F)c3c2=O)c1`: -7% and 0.75.
The matching figures for `Cc1cc(C(=O)N2CCN(C)C[C@@H]2CC(C)C)c2c(C)n[nH]c2n1`: 1% and -0.1.
As to `CCN1c2cc(C)ccc2-n2cccc2C12CCN(C(=O)Nc1ccc(C)c(F)c1)CC2`, the “% Inhibition” value is -6% and the Z score is listed as 0.77.
For `CCOC(=O)C(C)(C)c1csc(-c2cnn(C)c2)n1`, in that order: -2% and 0.18.
For `CC(C(=O)N(C)CC1CCS(=O)(=O)C1)C(C)(C)C` (stereo unspecified), in that order: 9% and -1.2.
The matching figures for `Cc1cc(C)n2c(-c3ccccc3C)nnc2n1`: 34% and -4.35.
On to `COc1cc(OC)cc(C(=O)N2CCN(C(C(=O)N3CCCCC3C)C3CCCC3)CC2)c1` (stereo unspecified), for which the “% Inhibition” value was 1% and the Z score is reported as -0.16.
With `CN(C)c1ccc([C@H]2N(c3ccc(Cl)cc3)C(=O)[C@@H]3CCCN32)cc1`, the “% Inhibition” value is -7% and the Z score is 0.87.
The matching figures for `CC(C1CC1)N(C)S(=O)(=O)NC1CCc2ccccc2C1` (stereo unspecified): -9% and 1.13.
For `CC[C@@H](C(=O)N1CCN(Cc2ccc(OC)c(OC)c2OC)CC1)N1C(=O)CCn2nc(C)cc21`, in that order: -15% and 1.5.
For `CCCCN(CC(N)=O)CC(=O)NCc1ccccc1`, in that order: -2% and 0.32.
For `O=C(CC(F)(F)F)Nc1nc2c(s1)C(=O)NCCC2`, the “% Inhibition” value is listed as -10% and the Z score turned out to be 1.95.
The matching figures for `COc1c[nH]c(COCCC2CCC2)cc1=O`: -3% and 0.45.
For `C[C@@H](c1ccncc1)N(C)C(=O)c1cccc2c1CCC2=O`, in that order: -15% and 2.12.
For `CC[C@@H](CO)NC(=O)COC1CCC(NC(=O)OC(C)(C)C)CC1` (stereo partly specified), in that order: -1% and 0.15.
Turning to `O=C1C[C@H](c2nc(Cc3nc4ccccc4s3)no2)CN1`, the “% Inhibition” value is -9% and the Z score amounted to 1.82.
The matching figures for `CCOc1cccc([C@H](C)NCc2c(C)nnn2CC)c1`: 13% and -1.62.
The matching figures for `CC1CCN(c2nnc(C(=O)NC3CCCC3)c3ccccc23)CC1`: -7% and 0.86.
The matching figures for `O=C(NCc1cccc(Cl)c1)c1ccc2c(c1)CCC(=O)N2Cc1ccccc1`: -3% and 0.41.
For `CN(CC(=O)NCC1CCCCC1)C[C@H]1CC(=O)N(C)C1`, the “% Inhibition” value was -16% and the Z score is listed as 2.25.
The matching figures for `CCCCNC(=O)CNc1c(C)cccc1C(N)=O`: -7% and 1.26.
Take `Cc1nnc([C@@H](Nc2ncnc3sccc23)C(C)C)[nH]1`: the “% Inhibition” value worked out at 8% and the Z score is recorded as -1.08.
In the case of `Cc1nn(-c2ccccc2)c2c1nc(CCC(=O)NCc1ccc(Cl)cc1)c(=O)n2C`, the “% Inhibition” value is -1% and the Z score came to 0.17.
The matching figures for `Cc1ccc(-c2nccn3cc(C(=O)NCCCN(C)C)nc23)cc1`: -6% and 0.85.
The matching figures for `CNC(=O)CC1CCN(Cc2cn(C)c3cc(OC)ccc23)CC1`: -2% and 0.34.
The matching figures for `CN(Cc1ccccc1)[C@@H]1[C@H](O)[C@H](CO)O[C@@H]1CNS(=O)(=O)c1ccc(Cl)cc1`: 16% and -1.87.
In the case of `Cc1cc(-c2nn(-c3ccccc3F)cc2CN(C)Cc2ccn[nH]2)c(C)s1`, the “% Inhibition” value is on record as -8% and the Z score was 1.15.
The matching figures for `Cc1cccc(NC(=O)C(=O)N2CCCN(C)CC2)c1Cl`: -2% and 0.48.
The matching figures for `CC1Cc2cc(S(=O)(=O)N3CCOCC3c3nc[nH]n3)ccc2O1` (stereo unspecified): -3% and 0.42.
Regarding `Cc1csc(-c2cc(S(=O)(=O)N3CCC(C)CC3)cn2CC(=O)N2CCCCC2)n1`, the “% Inhibition” value is -12% and the Z score is 1.4.
The matching figures for `CCNC(=O)[C@H]1CCN(Cc2cc(C)c(OC(C)=O)c(C)c2)C1`: -12% and 2.43.
The matching figures for `O=C(c1nc2ccccc2s1)N1CC(n2cc(C3CC3)nn2)C1`: -6% and 0.89.
For the compound `Cc1ccc(S(=O)(=O)NCc2ccc(Cn3cccn3)cc2)cc1`, the “% Inhibition” value is -4% and the Z score is 0.38.
The matching figures for `COC1(c2nccn2C)CCN(c2ccc(C(F)(F)F)cn2)CC1`: -15% and 1.67.
For `O=C(NC1CCCCCC1)c1ccn2c(-c3ccccc3Cl)nnc2c1`, in that order: -15% and 1.72.
Take `Cn1cc(S(=O)(=O)N2CC(=O)Nc3cc(C(F)(F)F)ccc32)cc1C(N)=O`: the “% Inhibition” value is -8% and the Z score came to 1.12.
For `CCCc1ccccc1C(=O)N[C@H]1CCO[C@H](c2ccccn2)C1`, in that order: -9% and 1.75.
For the compound `Cc1ccc(NC[C@H]2CCN(CC(=O)NCc3ccco3)C2)nc1`, the “% Inhibition” value is -12% and the Z score was 1.01.
For `C[C@H](O)CN1CCCC(C(F)(F)F)C1` (stereo partly specified), in that order: -1% and 0.1.
For the compound `COCC(=O)N1CC[C@@H](c2ccccc2)S(=O)(=O)CC1`, the “% Inhibition” value was -18% and the Z score is recorded as 3.09.
For the compound `CCCNC(=O)N1CCn2nc(CCC(=O)N3CCC(O)CC3)cc2C1`, the “% Inhibition” value is listed as -12% and the Z score came out at 2.22.
Turning to `O=S(=O)(CCC(F)(F)F)N1CC(N2CCCC2)C1`, the “% Inhibition” value amounted to 8% and the Z score is reported as -0.9.
The matching figures for `Cc1cccc(-c2noc(CN3CCC4(CC3)C[C@@H]4c3nc(-c4cccnc4)no3)n2)c1`: -2% and 0.36.
For `Cc1cccc(C)c1NC(=O)CN1CCN(Cc2ccc(Cl)cc2)S1(=O)=O`, the “% Inhibition” value is listed as -19% and the Z score amounted to 1.65.
The matching figures for `O=C(Nc1ccc2c(c1)OCO2)C1CC1C(=O)Nc1ccc(F)cc1F` (stereo unspecified): 3% and -0.42.
The matching figures for `Cc1cc(C(=O)N(C)[C@@H](C)C2CC2)on1`: -10% and 1.08.
The matching figures for `CN(C)c1ncnc2c1ccc(=O)n2C`: -9% and 1.57.
`CNC(=O)C1(N2CCC[C@H]2C(=O)N2CCCCCC2)COC1`: the “% Inhibition” value is 13% and the Z score is given as -1.47.
The matching figures for `Cc1ccncc1C(=O)N1CCC2(CC1)C[C@@H]2NS(C)(=O)=O`: -15% and 1.87.
The matching figures for `CCCn1cc(S(=O)(=O)N[C@@H](CC)c2nc(C)c[nH]2)cn1`: -9% and 1.52.
For `Cc1ccc(-c2c(N3CCCC3)cn[nH]c2=O)cc1`, in that order: 2% and -0.15.
For the compound `CC(=O)Nc1ccc(CNC(=O)[C@H]2CC[C@H](c3ccccc3)C2)cc1`, the “% Inhibition” value was -11% and the Z score was 1.39.
The matching figures for `COc1ccc(OCc2nc(-c3ccc4c(c3)nnn4C3CCCC3)no2)cc1`: -20% and 2.54.
For `CC[C@H](C)N(CCC(=O)Nc1nnc(-c2cccc(Cl)c2)s1)C(=O)COc1ccc(Cl)cc1`, in that order: -12% and 1.13.
For `O=C(NC[C@@H](c1ccco1)N1CCCC1)c1cnnn1-c1ccccc1`, in that order: 0% and -0.01.
Consider `CCc1ccc(C(=O)N2CCC(Oc3cccc(C(F)(F)F)c3)CC2)[nH]1`, for which the “% Inhibition” value is reported as -12% and the Z score worked out at 2.12.
The matching figures for `CS(=O)(=O)N1C2CCC1CC(NC(=O)NC1CCCC1)C2` (stereo unspecified): -23% and 2.97.
For `COc1ccc(C(=O)N2CCCN(c3nc(C4CC4)nc4c3cnn4-c3ccccc3)CC2)cc1`, in that order: -12% and 1.24.
For `CC(C)[C@H]1CN(c2ccncc2F)C[C@@H]1NC(=O)CCS(C)(=O)=O`, in that order: -8% and 1.18.
Consider `CCCc1nc(CN(CC)C(=O)NCc2ccccc2F)no1`, for which the “% Inhibition” value is given as -8% and the Z score is reported as 1.15.
As to `O=S(=O)(CC1CCCCO1)N1CCC(N2CCCC2)C1` (stereo unspecified), the “% Inhibition” value worked out at 5% and the Z score was -0.97.
For `O=C(C1CCCC2CCCCC21)N1CCOC(C(F)F)C1` (stereo unspecified), in that order: -14% and 1.5.
The matching figures for `N#Cc1ccc(-c2nc(C(=O)NC3CCCCCC3)no2)cc1`: -16% and 1.45.
The matching figures for `O=C(c1cc(-c2ccccc2F)nc2cc(-c3ccccc3)nn12)N1CCN(c2cccc(C(F)(F)F)c2)CC1`: -3% and 0.38.
With `Cc1ccc(C(=O)Nc2ccc3c(c2)cc(C(=O)Nc2ccccc2)n3Cc2ccc(C(C)(C)C)cc2)cc1C`, the “% Inhibition” value was determined as 8% and the Z score is reported as -0.85.
For `CCCCc1nc(C)cc(NCCNC(=O)c2cncn2C)n1`, in that order: -31% and 2.74.
The matching figures for `CC1CC(C)CN(C(=O)Cc2ccc(F)cc2)C1` (stereo unspecified): 4% and -0.55.
For `CN(Cc1ccccc1)C(=O)C[C@@H]1CCNC[C@@H]1Cc1cc(-c2ccc(C(C)(C)C)cc2)on1`, in that order: 31% and -3.48.
On to `Cc1c(CC(=O)NCC(N)=O)c2c(n1Cc1ccccc1)CCCC2=O`, for which the “% Inhibition” value is 1% and the Z score is on record as -0.27.
`O=C(NCC[C@H]1CCC(F)(F)C1)c1cnn2c1OCCC2`: the “% Inhibition” value is on record as 6% and the Z score is given as -1.11.
The matching figures for `Cc1cc(C(=O)N2CCN(c3ccccc3)CC2)c2c(C)nn(-c3ccccc3Cl)c2n1`: -7% and 0.92.
For `CC(NC(=O)CN1C(C(=O)O)CC2CCCCC21)c1ccc(F)cc1` (stereo unspecified), in that order: -5% and 0.6.
For `CCc1ccccc1S(=O)(=O)N[C@@H]1CS(=O)(=O)C[C@H]1O`, the “% Inhibition” value is -5% and the Z score is 0.63.
In the case of `CNC(=O)c1ccc(CN(C)C2CCCCC2O)o1` (stereo unspecified), the “% Inhibition” value stood at 2% and the Z score is -0.21.
For `CN(Cc1c[nH]nc1-c1c(F)cccc1F)CC1(O)CCOCC1`, the “% Inhibition” value is on record as -17% and the Z score is 1.71.
For `CC1CN(CC(=O)NC2(C#N)CCCCC2)CC(C)O1` (stereo unspecified), in that order: -3% and 0.61.
The matching figures for `COc1cc2c(cc1OC)C1CCCCC1OC2c1cccc(NS(C)(=O)=O)c1` (stereo unspecified): 35% and -3.96.
For `Cc1cccc(NC(=O)c2cccc(C(=O)Nc3cccc(C)n3)n2)n1`, in that order: 6% and -0.88.
Regarding `Cc1n[nH]c(=O)nc1NCCc1c[nH]c2ccccc12`, the “% Inhibition” value was 1% and the Z score is -0.16.
For the compound `COCc1nc(Cc2noc([C@H]3CCO[C@@H]3c3cccnc3)n2)cs1`, the “% Inhibition” value is recorded as -9% and the Z score was 1.66.
The matching figures for `CN(Cc1ncnn1CC(F)F)C(=O)c1nccc2ccsc12`: -7% and 1.05.
